Reference: PMC4336329 (PLoS ONE, 2015)
Among all 310,000 compounds or so, about 2,200 (0.71%) showed an effect of 50% or more. The effect is printed as a negative number. The list shows a part of the results.

Each compound was assayed against human ether-à-go-go-related gene (hERG) potassium channel (human, UniProt Q12809) (assay: primary screen, population patch clamp on CHO cells stably expressing hERG).
Chain of human ether-à-go-go-related gene (hERG) potassium channel (Q12809 whole entry, looked up): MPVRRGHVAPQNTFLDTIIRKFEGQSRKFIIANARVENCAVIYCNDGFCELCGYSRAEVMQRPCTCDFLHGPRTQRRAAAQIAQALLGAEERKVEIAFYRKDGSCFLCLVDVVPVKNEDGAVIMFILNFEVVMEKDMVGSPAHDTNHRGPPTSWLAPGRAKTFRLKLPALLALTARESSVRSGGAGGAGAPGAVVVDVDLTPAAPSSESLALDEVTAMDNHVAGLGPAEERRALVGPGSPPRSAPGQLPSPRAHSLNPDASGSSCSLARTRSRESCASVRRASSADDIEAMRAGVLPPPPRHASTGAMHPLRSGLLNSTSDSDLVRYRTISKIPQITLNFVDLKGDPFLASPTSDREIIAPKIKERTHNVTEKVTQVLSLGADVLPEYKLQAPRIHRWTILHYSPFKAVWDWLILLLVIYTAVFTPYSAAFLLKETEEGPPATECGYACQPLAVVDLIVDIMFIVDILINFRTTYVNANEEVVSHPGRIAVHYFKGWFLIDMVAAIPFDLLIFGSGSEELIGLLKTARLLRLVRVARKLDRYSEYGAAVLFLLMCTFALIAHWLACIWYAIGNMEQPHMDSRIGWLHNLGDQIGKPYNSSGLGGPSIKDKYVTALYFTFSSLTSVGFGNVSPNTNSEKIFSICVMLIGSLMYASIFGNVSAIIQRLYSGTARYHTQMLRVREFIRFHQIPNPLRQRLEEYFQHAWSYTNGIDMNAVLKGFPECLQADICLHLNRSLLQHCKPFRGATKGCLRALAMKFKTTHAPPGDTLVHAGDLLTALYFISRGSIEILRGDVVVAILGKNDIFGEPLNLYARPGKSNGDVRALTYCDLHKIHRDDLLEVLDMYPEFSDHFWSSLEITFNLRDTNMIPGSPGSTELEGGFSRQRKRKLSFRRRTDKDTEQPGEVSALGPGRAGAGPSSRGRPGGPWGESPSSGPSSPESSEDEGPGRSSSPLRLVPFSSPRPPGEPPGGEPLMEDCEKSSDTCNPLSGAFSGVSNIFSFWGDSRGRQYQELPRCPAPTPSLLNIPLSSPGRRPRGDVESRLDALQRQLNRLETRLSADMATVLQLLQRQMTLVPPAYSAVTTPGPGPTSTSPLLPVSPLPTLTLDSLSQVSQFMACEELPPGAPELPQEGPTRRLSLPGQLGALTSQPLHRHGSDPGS

Row | SMILES | hERG current change (%, negative = inhibition) at 1uM
1 | C#Cc1ccc([C@@H]2C=C(C(=O)O)O[C@H](OCc3ccc(CO)cc3)C2)cc1 | 13.6%
2 | CCCN(CC(=O)Nc1ccc(C(N)=O)cc1)CC(=O)Nc1ccc(F)c(F)c1F | 9.34%
3 | COC(=O)C(O)(c1ccc(NC(=S)NC(=O)c2ccc(Cl)cc2Cl)c(C)c1)C(F)(F)F (centres unmarked) | 17.6%
4 | O=C(COC(=O)c1ccc2c(c1)OCCO2)Nc1cccc(S(=O)(=O)N2CCOCC2)c1 | -1.35%
5 | COCCCN1C(=O)CC(C(=O)OC)=C1C | 12.9%
6 | O=C(NNC(=O)c1ccc(Br)o1)c1csc(N2CCOCC2)n1 | 4.89%
7 | CCC(C(=O)NC1CCCC1)N(C(=O)c1snc(C(N)=O)c1N)c1ccc(C)cc1C (centres unmarked) | 12%
8 | Cc1ccc(CN(Cc2cc3cccc(C)c3[nH]c2=O)C(=S)NCCCN(C)C)cc1 | -12.3%
9 | CCNc1nc(NCC)nc(SCCOC(=O)c2ccccc2)n1 | 2.83%
10 | Nc1nonc1C(=O)NCCNc1ccc([N+](=O)[O-])cn1 | 0.313%
11 | CN(C)C(CNC(=O)Nc1cccc(Cl)c1)c1cccnc1 (centres unmarked) | 4.19%
12 | COc1ccccc1C(=O)NNC(=O)c1ccc(NC(=O)CC(C)C)cc1 | 11.8%
13 | COC(=O)C1=Nc2ccccc2/C1=C\c1c(O)n(-c2cc(OC)ccc2OC)c(=O)[nH]c1=O | 19.1%
14 | CCn1ncc(C(=O)Nc2ccc(F)cc2)c1C | 14%
15 | CCc1ccccc1NC(=S)N1CCC(C(=O)c2ccc(F)cc2)CC1 | -9.53%
16 | O=C(CCN1C(=O)C2C3C=CC(C3)C2C1=O)NCCc1ccccc1 (centres unmarked) | 9.54%
17 | Cc1ccc(C)c(C(=O)NCc2ccncc2)c1 | -1.89%
18 | O=C(COC(=O)c1ccc(O)cc1O)Nc1ccc2c(c1)OCCO2 | 6.26%
19 | CCCOc1cc(C)c(S(=O)(=O)NC2CC(C)(C)NC(C)(C)C2)cc1C | 4.81%
20 | CCOC(=O)c1c(NC(=O)CSc2nnnn2CC)sc(C)c1C | 10.2%
21 | CCN(CC(=O)Nc1ccccc1Br)C1CCCCC1 | -0.704%
22 | COc1ccccc1NC(=O)Nc1ccccc1C#N | 15.2%
23 | COc1ccc(NC(=O)CC(C)CC(=O)NCc2ccc(F)cc2)c(OC)c1 (centres unmarked) | 9.13%

Row | SMILES | hERG current change (%, negative = inhibition) at 1uM
24 | CCCN1CCC(Oc2cccc(C(=O)NCCc3ccccc3)c2)CC1 | -11.5%
25 | Cc1nc2ccccc2c(=O)n1NC(=O)c1ccccc1 | 3.94%
26 | O=C(NNC(=O)c1cccs1)c1ccc(Cl)cc1 | 9.36%
27 | Clc1ccc(Cn2ncc3c(NCc4cccnc4)ncnc32)cc1 | -10.2%
28 | CS(=O)(=O)c1ccc2nc(NC(=O)CCNC(=O)c3ccccc3Cl)sc2c1 | 10.4%
29 | CCOc1ccc(NC(=O)Cn2nnc(C(=O)NCc3ccccc3OC)c2N)cc1 | 11%
30 | O=C1C[C@@H](c2ccccc2)Oc2cc(O)cc(O)c21 | 0.714%
31 | NS(=O)(=O)c1ccc(NC(=O)C2CCCN(S(=O)(=O)c3ccc(F)cc3)C2)cc1 (centres unmarked) | 14.7%
32 | Cc1ccc2[nH]c(=O)c(CN(Cc3ccco3)C(=O)c3ccncc3)cc2c1 | -0.51%
33 | CCOCCCNC(=O)C1CCN(S(=O)(=O)N2CCCC2)CC1 | -0.37%
34 | Cc1nc2sc(-c3ccccc3)cc2c(=O)n1N | 11.2%
35 | Cc1[nH]c2ccccc2c1C(=O)COc1ccccc1F | 7.33%
36 | Cc1ccc(C(=O)Nc2nccs2)s1 | 7.67%
37 | Cc1ccc(S(=O)(=O)c2nc(S(C)(=O)=O)sc2N2CCN(C)CC2)cc1 | 14.2%
38 | CN(C(=S)Nc1ccc(F)cc1)C1(c2ccccc2Cl)CCCCC1=O (centres unmarked) | 4.47%
39 | CCNC(=O)COC(=O)/C=C/c1cccc([N+](=O)[O-])c1 | 12.3%
40 | COc1ccc2nc(SCC(=O)Nc3ccc(S(=O)(=O)Nc4onc(C)c4C)cc3)[nH]c2c1 | -0.668%
41 | O=C1/C(=C/c2cccs2)N=C(c2cccs2)N1Nc1ccccc1 | -9.77%
42 | Cc1ccc(/C=C/S(=O)(=O)N2CCC(C(=O)O)CC2)cc1 | 24.8%
43 | CCN1CCN(c2c(Cl)cccc2NC(=O)c2ccco2)CC1 | -70.7%
44 | COCCn1c(=S)[nH]c2cc(C(=O)N3CCN(c4ccc(F)cc4)CC3)ccc2c1=O | -11.6%
45 | CCn1cnc2scc(-c3ccc(OC)cc3)c2c1=O | 8.17%
46 | Cl.c1ccc(-c2cc(-c3ccc(N4CCOCC4)cc3)nc3ccccc23)cc1 | 5.29%

Row | SMILES | hERG current change (%, negative = inhibition) at 1uM
47 | CC1=NN(c2ccccc2)C(=O)C1C=Nc1ccccc1O (centres unmarked) | 9.8%
48 | O=C(NCC1CCCO1)C12CN(Cc3ccccc3)CC1C(c1cccc([N+](=O)[O-])c1)=NO2 (centres unmarked) | 1.43%
49 | O=C(NNC(=O)c1ccncc1)NC1CCCCC1 | 23.3%
50 | CCSc1ccccc1C(=O)Nc1ccc(S(=O)(=O)NC(C)=O)cc1 | 14.8%
51 | Cc1ccc2c(c1)COc1c3ccc(C(=O)NCCO)cc3nn1-2 | 5.85%
52 | CCn1c(SCC(=O)Nc2ccc(C(C)=O)cc2)nc2nc3c(cc2c1=O)CCCC3 | -1.29%
53 | O=C1[C@H](CC[C@H](O)c2ccc(F)cc2)[C@@H](c2ccc(O)cc2)N1c1ccc(F)cc1 | 9.18%
54 | CCCc1cc(=O)[nH]c(SCC(=O)N(CC)c2c(N)n(Cc3ccccc3)c(=O)[nH]c2=O)n1 | 14%
55 | CC(=O)NS(=O)(=O)c1ccc(N=NN2CCOCC2)cc1 | 3.59%
56 | Cc1cccc(CCNS(=O)(=O)c2ccc(S(=O)(=O)N3CCCCC3)cc2)c1 | 2.57%
57 | C=C(C)C(=O)Nc1cccc(C2=NOC3(C2)C[C@@H](C(N)=O)N(C(=O)CCCCC)C3)c1 (some centres unmarked) | -0.596%
58 | C/C(=N/Nc1ccc(C(=O)O)cc1)c1ccc(O)c(O)c1O | 14.2%
59 | CCn1cc(CNC(=O)CCSc2nc(-c3ccco3)cc(C(F)(F)F)n2)cn1 | 4.78%
60 | COc1cccc(C(=O)NOCc2ccccc2)c1OC | 10.2%
61 | Cc1ccc(S(=O)(=O)Oc2ccc(/C=N/NC(=O)c3ccncc3)cc2)cc1 | 3.02%
62 | Cc1cccc(NS(=O)(=O)c2ccc(Br)s2)n1 | 9.58%
63 | Cc1sc2nc[nH]c(=S)c2c1-c1ccccc1 | 11.3%
64 | O=C(NNC(=O)C1C2C=CC(C2)C1C(=O)O)c1ccccc1 (centres unmarked) | 18.4%
65 | O=C(NC1CCCC1)c1cc2c(ccc3ccccc32)o1 | 5.48%
66 | COc1ccc(CC(=O)NNC(=O)Cc2ccc(OC)cc2)cc1 | 18.4%
67 | Cc1ccccc1C(=O)NCC(=O)OCCCOC(=O)CNC(=O)c1ccccc1C | 16.1%
68 | COCCN(C(=O)COC(=O)c1cccc2ccccc12)c1c(N)n(Cc2ccccc2)c(=O)[nH]c1=O | 0.926%
69 | CCCCOc1ccc(/C(O)=C2/C(=O)C(=O)N(CCCOC)C2c2ccncc2)cc1C (centres unmarked) | 5.21%

Row | SMILES | hERG current change (%, negative = inhibition) at 1uM
70 | S=c1nc(-c2ccccc2Br)[nH][nH]1 | 14.4%
71 | COC(=O)c1cc(Br)cn1S(=O)(=O)c1ccccc1 | 8.38%
72 | Cc1cc2cc(CNC(=O)c3ccc(S(=O)(=O)N4CCOCC4)cc3)ccc2n1C | 14.9%
73 | CCCCn1c(N)c(N(CC)C(=O)c2ccc(C#N)cc2)c(=O)[nH]c1=O | 14.4%
74 | COC(=O)C1CCN(C(=O)c2ccccc2NC(C)=O)CC1 | 13.7%
75 | Cn1c(=O)c2ncn(CC(=O)Nc3ccc4c5c(cccc35)CC4)c2n(C)c1=O | 7.27%
76 | Cc1c(-c2ccccc2)oc2c(C(=O)OCC(=O)Nc3cccc(F)c3)cccc2c1=O | 5.94%
77 | C=CCn1c(SCC(=O)Nc2ccc3c(c2)OCO3)nnc1-c1ccccc1OC | 3.27%
78 | O=C(NC1CCSC1=O)C1CC(=O)N(c2ccc(F)cc2)C1 (centres unmarked) | 10.9%
79 | CC(CCc1ccccc1)NCc1cccc2ccccc12.O=C(O)C(=O)O (centres unmarked) | -7.56%
80 | Cc1cccc(/C(N)=N/OC(=O)Cc2cccc3ccccc23)c1 | 2.71%
81 | CC(=O)NC(Cc1ccccc1)Cc1ccccc1 | 16%
82 | Nc1nnn(CC(=O)N/N=C/c2ccncc2)n1 | 11.4%
83 | CCOC(=O)N1CCC(N2CCCC(C(=O)c3ccc4cc(OC)ccc4c3)C2)CC1 (centres unmarked) | -55.1%
84 | CC1CCN(CC(=O)N2CCc3ccccc32)CC1 | 13.4%
85 | Cc1ccc(C(=O)c2nc3c(n2O)CCCC3)cc1 | 0.101%
86 | Cc1ccccc1NC(=O)COC(=O)c1cc[n+]([O-])cc1 | -3.27%
87 | O=S(=O)(c1ccc(Cl)cc1)N1CCCCC1c1cccnc1 (centres unmarked) | -3.3%
88 | Cc1cccc(-n2c(O)c(C=Nc3ccccc3-c3n[nH]c(=S)[nH]c3=O)c3ccccc3c2=O)n1 | -5.25%
89 | COc1ccc(-c2csc(NCCc3nc4cc(Cl)c(Cl)cc4n3CCCO)n2)cc1 | 7.25%
